{
  "source": "the RNAGym collection of RNA variant scans (doi:10.1073/pnas.2313332121)",
  "parents": {"B1": {"name": "TPR 5TU (parent)", "chain": "GGAUCUUCUCGAUCUAACAAAAAAGACAAAUCUGCCACAAAGCUUGAGAGCAUCUUCGGAUGCAGAGGCGGCAGCCUUCGGUGGCGCGAUAGCGCCAACGUUCUCAACUAUGACACGCAAAACGCGUGCUCCGUUGAAUGGAGUUUAUCAUG"}},
  "note": "Variants at the background level are over-represented here.",
  "data": [
    {"variants_of": "B1", "test": "polymerase ribozyme fitness, log enrichment relative to wild type (log ratio); higher = more active; in vitro selection for triplet polymerase activity", "how_it_was_run": "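The heterodimeric triplet polymerase ribozyme's subunits were each mutagenized into PCR-built libraries and transcribed. Every library was selected once, in triplicate, by annealing with a biotinylated primer, the partner subunit and triplets, incubating frozen at −7 °C, gel-excising extended constructs, capturing on streptavidin beads and running RT-PCR. Input and output libraries were Illumina-sequenced, with genotypes kept only at ≥10 input reads and ≥1 read per output. Fitness, from inverse-variance-weighted replicate averages, is the base-2 logarithm of genotype enrichment over wild-type enrichment.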", "values": [
      {"variant": "GGAUCUUCUCGAUCUAACAAAAAAGACAAAUCUGCCACAAAGCUUGAGAGCAUCUUCGGAUGCAGAGGCGGCAGCCUUCGGUAGCGCGAUAGCGCCAACGUUCUCAACUAUGACACGAAAAACGCGUGCUCCAUUGAAUGGAGUUUAUCAUG", "note": "[G83A C118A G133A]", "polymerase ribozyme fitness (log ratio)": "≤ -4.2"},
      {"variant": "GGAUCUUCUCGAUCUAACAAAAAAGACAAAUCUGCCACAAAGCUUGAGAGCAUCUUCGGAUGCAGAGGCGGCAGCCUUCGGUCGCGCGAUAGCGCCAACGUUCUCAACUGUGACACGCAAAACGCGUGCUCCGUUGAAUGGCGAUUAUCAUG", "note": "[G83C A110G A142C U144A]", "polymerase ribozyme fitness (log ratio)": "≤ -4.2"},
      {"variant": "GGAUCUUCUCGAUCUAACAAAAAAGACAAAUCUGCCACAAAGCUUGAGAGCAUCUUCGGAUGCAGAGGCGGCAGCCUUCGGUCGCGCGAUAGCGACAACGUUCUCAACUAUGACACGCAAAACGCGUGCUCCGUUGAAUCGAGUUUAAAAUG", "note": "[G83C C95A G140C U148A C149A]", "polymerase ribozyme fitness (log ratio)": "≤ -4.2"},
      {"variant": "GGAUCUUCUCGAUCUAACAAAAAAGACAAAUCUGCCACAAAGCUUGAGAGCAUCUUCGGAUGCAGAGGCGGCAGCCUUCGGUUGCGCGAUAGCUCCAACGUUCUCAACUAUGACAAGCAAAACGCGUGCUCGGUUGAAUUGAGUUUAUCAUG", "note": "[G83U G94U C116A C132G G140U]", "polymerase ribozyme fitness (log ratio)": -3.11},
      {"variant": "GGAUCUUCUCGAUCUAACAAAAAAGACAAAUCUGCCACAAAGCUUGAGAGCAUCUUCGGAUGCAGAGGCGGCAGCCUUCGGUUGCGCGAUAGCGCCAACGUUCUCAACUAUGACACGCAACACGCGUGCUCCGUUGAAUGGUGUUUAUCAUG", "note": "[G83U A121C A142U]", "polymerase ribozyme fitness (log ratio)": -1.46},
      {"variant": "GGAUCUUCUCGAUCUAACAAAAAAGACAAAUCUGCCACAAAGCUUGAGAGCAUCUUCGGAUGCAGAGGCGGCAGCCUUCGGUUGCCCGCUAGCGCCAACGUUCUCAACUAUGAGACGCAAAACGUGUGCUCCGUUGAAUGGAGUUUGUCAUG", "note": "[G83U G86C A89C C114G C125U A147G]", "polymerase ribozyme fitness (log ratio)": "≤ -4.2"},
      {"variant": "GGAUCUUCUCGAUCUAACAAAAAAGACAAAUCUGCCACAAAGCUUGAGAGCAUCUUCGGAUGCAGAGGCGGCAGCCUUCGGUCGCGCGACAGCGCCAACGUUCUCACCUAUGACAAGCAAAACGCGCGCUCCGUUGAAUGGAGUUUAUCCUG", "note": "[G83C U90C A107C C116A U127C A150C]", "polymerase ribozyme fitness (log ratio)": "≤ -4.2"},
      {"variant": "GGAUCUUCUCGAUCUAACAAAAAAGACAAAUCUGCCACAAAGCUUGAGAGCAUCUUCGGAUGCAGAGGCGGCAGCCUUCGGUAGCGCGAUAGCGCCAACGCUCUCAACUAUGACACGCAAAACGCGUGCUCCGUUGAAUGGAGUUUAUCAUG", "note": "[G83A U101C]", "polymerase ribozyme fitness (log ratio)": -2.23},
      {"variant": "GGAUCUUCUCGAUCUAACAAAAAAGACAAAUCUGCCACAAAGCUUGAGAGCAUCUUCGGAUGCAGAGGCGGCAGCCUUCGGUUGCGCGAUUGCGCCAACGUUCUAAACUAUGUCACGCAAAACGCGUGCUCCGUUGAAUGGAGUUUAUAAUG", "note": "[G83U A91U C105A A113U C149A]", "polymerase ribozyme fitness (log ratio)": "≤ -4.2"},
      {"variant": "GGAUCUUCUCGAUCUAACAAAAAAGACAAAUCUGCCACAAAGCUUGAGAGCAUCUUCGGAUGCAGAGGCGGCAGCCUUCGGUCGCGCGAUAGCGCCAACGUUCUCAACUAUGACACGCAAAACGCGUGCUCCGUUGAAUGGAGUGUAUCAUG", "note": "[G83C U145G]", "polymerase ribozyme fitness (log ratio)": -0.686},
      {"variant": "GGAUCUUCUCGAUCUAACAAAAAAGACAAAUCUGCCACAAAGCUUGAGAGCAUCUUCGGAUGCAGAGGCGGCAGCCUUCGGUCGCGCGAUAGGGCCAACGUUCUCAACUAUAACCCGCAAAACGCGUGCUCCGUUGAAUGGAGUUUAUCAUG", "note": "[G83C C93G G112A A115C]", "polymerase ribozyme fitness (log ratio)": "≤ -4.2"},
      {"variant": "GGAUCUUCUCGAUCUAACAAAAAAGACAAAUCUGCCACAAAGCUUGAGAGCAUCUUCGGAUGCAGAGGCGGCAGCCUUCGGUCGCGCGAUAGCGCUAACGUUCUCAACUAUGACACGCAAAACGCGUGCUCCGUUGAAUGGAGUUUUUCAUA", "note": "[G83C C96U A147U G152A]", "polymerase ribozyme fitness (log ratio)": -1.98},
      {"variant": "GGAUCUUCUCGAUCUAACAAAAAAGACAAAUCUGCCACAAAGCUUGAGAGCAUCUUCGGAUGCAGAGGCGGCAGCCUUCGGUUGCGGGAUAGCGCCAACGUUCUCAACUAUGACACGCAAAACGCGUGCUCCGUUGAAUGGAGUUUAUCAUG", "note": "[G83U C87G]", "polymerase ribozyme fitness (log ratio)": "≤ -4.2"},
      {"variant": "GGAUCUUCUCGAUCUAACAAAAAAGACAAAUCUGCCACAAAGCUUGAGAGCAUCUUCGGAUGCAGAGGCGGCAGCCUUCGGUAGCGCGAUAGCGCCAACGUUCUCAACUAUGAUACGCAAAACGCGUGCUCCGUUGAAUGGAGUUUAUCAUG", "note": "[G83A C114U]", "polymerase ribozyme fitness (log ratio)": -2.41},
      {"variant": "GGAUCUUCUCGAUCUAACAAAAAAGACAAAUCUGCCACAAAGCUUGAGAGCAUCUUCGGAUGCAGAGGCGGCAGCCUUCGGUUGCGCUAUAGCGCCAACGUUCUCAUCUGUGACACGCAAUACGCGUGCUCCGUUGAAUGGAGUUUAUCAUG", "note": "[G83U G88U A107U A110G A121U]", "polymerase ribozyme fitness (log ratio)": "≤ -4.2"},
      {"variant": "GGAUCUUCUCGAUCUAACAAAAAAGACAAAUCUGCCACAAAGCUUGAGAGCAUCUUCGGAUGCAGAGGCGGCAGCCUUCGGUCGCGCGAUAGCGCCAACGUUCUCAACUAUGACACGCAAAACGCAUGCUCCGUUGAAUGGAGUUUAUCAUG", "note": "[G83C G126A]", "polymerase ribozyme fitness (log ratio)": 0.0538},
      {"variant": "GGAUCUUCUCGAUCUAACAAAAAAGACAAAUCUGCCACAAAGCUUGAGAGCAUCUUCGGAUGCAGAGGCGGCAGCCUUCGGUCGCGCGAUAGCGCCAACGUUCUCAACUAUGACACGCAAAACGCUUGCUCCGUUGAAUGGAGUUUAUCAUG", "note": "[G83C G126U]", "polymerase ribozyme fitness (log ratio)": 0.246},
      {"variant": "GGAUCUUCUCGAUCUAACAAAAAAGACAAAUCUGCCACAAAGCUUGAGAGCAUCUUCGGAUGCAGAGGCGGCAGCCUUCGGUUGCGCGAUAGCGUCAACGUUCUCAACUAUGACACGCUAAACGCGUGCUCCUUUGAAUGGAGUUUAUCAUG", "note": "[G83U C95U A119U G133U]", "polymerase ribozyme fitness (log ratio)": "≤ -4.2"},
      {"variant": "GGAUCUUCUCGAUCUAACAAAAAAGACAAAUCUGCCACAAAGCUUGAGAGCAUCUUCGGAUGCAGAGGCGGCAGCCUUCGGUAGCGCGAUAGCGCGAACGUUCUCAACUAUGACACGCAAAACGCGUGCUCCGUUGAAUGGAGUUUAUCAAG", "note": "[G83A C96G U151A]", "polymerase ribozyme fitness (log ratio)": "≤ -4.2"}
    ]}
  ]
}
